Experimental data from PubChem BioAssay AID328 (DTP/NCI, 2004).
Toxic doses and inconclusive results are not listed. A number of entries come with more than one value. This list holds those alone. An entry can have further records. The records of an entry differ for a reason that is not stated; some may be repeats, others may stem from another dose, organism or construct than stated.

Tested on: BDF1 mice, P388 leukemia ip, median survival T/C
Test: NCI In Vivo Anticancer Drug Screen. Data for tumor model P388 Leukemia (intraperitoneal) in B6D2F1 (BDF1) mice
Conditions: endpoint: median survival time, higher = longer survival
Summary of the method: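 T/C = treated-group survival ÷ vehicle-control survival; tumour transplanted into mice before dosing.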

[1] = dose: 0.25 mg/kg/injection, schedule: Q01DX009 (ip), vehicle: water

SMILES: NC(CSCc1ccccc1)CSCc1ccccc1
- T/C (dose: 3.12 mg/kg/injection, schedule: Q04DX003 (ip), vehicle: saline): 87 % of control, 103 % of control, 155 % of control

SMILES: COc1cccc2c1C(=O)c1c(O)c3c(c(O)c1C2=O)C[C@@](O)(/C(C)=N/NC(=O)c1ccc(Cl)cc1)C[C@@H]3OC1CC(N)C(O)C(C)O1 (stereo partly specified)
- T/C [1]: 115 % of control and 163 % of control

SMILES: COc1cc(O)c2c(c1)C(=O)c1cc3c(c(O)c1C2=O)C(OC1OC(C)C(O)C(O)C1OC)C(OC)C(C)(O)C3=O (stereo unspecified)
- T/C (dose: 150.0 mg/kg/injection, schedule: Q01DX010 (ip), vehicle: saline): 90 % of control, 116 % of control, 155 % of control

SMILES: CCCCOc1ccc(C(=O)N/N=C(\C)[C@]2(O)Cc3c(O)c4c(c(O)c3[C@@H](OC3CC(N)C(O)C(C)O3)C2)C(=O)c2c(OC)cccc2C4=O)cc1 (stereo partly specified)
- T/C [1]: 96 % of control and 153 % of control
- T/C (dose: 0.5 mg/kg/injection, schedule: Q01DX009 (ip), vehicle: water): 114 % of control and 154 % of control

SMILES: COc1cc2c[n+](C)c3c4cc(OC)c(OC)cc4ccc3c2cc1OC
- T/C (dose: 200.0 mg/kg/injection, schedule: Q04DX003 (ip), vehicle: water): 116 % of control and 174 % of control

SMILES: CCC1(O)CC(OC2CC(N(C)C)C(OC3CC4OC5CC(=O)C(C)OC5OC4C(C)O3)C(C)O2)c2c(cc3c(c2O)C(=O)c2c(O)ccc(O)c2C3=O)C1C(=O)OC (stereo unspecified)
- T/C (dose: 3.0 mg/kg/injection, schedule: Q01DX001 (ip), vehicle: saline): 113 % of control, 150 % of control, 160 % of control
- T/C (dose: 6.0 mg/kg/injection, schedule: Q01DX001 (ip), vehicle: saline): 113 % of control, 150 % of control, 180 % of control

SMILES: CC[C@]1(O)C[C@H]2CN(CCc3c([nH]c4ccccc34)[C@@](C(=O)OC)(c3cc4c(cc3OC)N(C=O)[C@H]3[C@@](O)(C(=O)OC)[C@H](OC(C)=O)[C@]5(CC)C=CCN6CC[C@]43[C@@H]65)C2)C1
- T/C (dose: 2.0 mg/kg/injection, schedule: Q04DX003 (ip), vehicle: water): 100 % of control and 168 % of control

SMILES: O=C(NP(=O)(N1CC1)N1CC1)c1cc(I)ccc1I
- T/C (dose: 2.0 mg/kg/injection, schedule: Q01DX009 (ip), vehicle: saline): 101 % of control and 191 % of control
- T/C (dose: 64.0 mg/kg/injection, schedule: Q01DX009 (ip), vehicle: saline): 87 % of control and 270 % of control
